The supplement of paper PMC8728848
This is one part of the list.

Tests used:
Assay in all cases: glycan array binding signal (z-score within array); higher = stronger binding
Conditions in all cases: glycan notation: IUPAC condensed, linker removed
[1] = biological target: 3dGal(b1-3)[Fuc(a1-4)]Glc
Procedure, shortened: (§1)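 From the Consortium for Functional Glycomics database, 3228 arrays were curated, keeping only those whose protein sequence was available. Binding is given as a within-array Z-score averaged across arrays sharing a protein sequence and across linkers. Negative Z-scores can be read as non-binding.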

3dGal(b1-4)Glc = biological target: 3dGal(b1-4)Glc
Procedure, shortened: as §1

[2] = biological target: 4d8dNeu5Ac(a2-3)Gal(b1-4)Glc
Procedure, shortened: as §1

[3] = biological target: 4dNeu5Ac(a2-3)Gal(b1-4)Glc
Procedure, shortened: as §1

[4] = biological target: 7dNeu5Ac(a2-3)Gal(b1-4)Glc
Procedure, shortened: as §1

[5] = biological target: 8dNeu5Ac(a2-3)Gal(b1-4)Glc
Procedure, shortened: as §1

[6] = biological target: 9dNeu5Ac(a2-3)Gal(b1-4)Glc
Procedure, shortened: as §1

[7] = biological target: Ara(a1-5)Ara(a1-5)Ara(a1-5)Ara(a1-5)Ara(a1-5)Ara
Procedure, shortened: as §1

[8] = biological target: Ara(a1-5)Ara(a1-5)Ara(a1-5)Ara(a1-5)Ara(a1-5)Ara(a1-5)Ara
Procedure, shortened: as §1

Fuc(a1-2)Gal = biological target: Fuc(a1-2)Gal
Procedure, shortened: as §1

[9] = biological target: Fuc(a1-2)Gal(b1-3)GlcNAc(b1-3)Gal(b1-4)Glc
Procedure, shortened: as §1

[10] = biological target: Fuc(a1-2)Gal(b1-3)GlcNAc(b1-3)[Fuc(a1-3)[Gal(b1-4)]GlcNAc(b1-6)]Gal(b1-4)Glc
Procedure, shortened: as §1

[11] = biological target: Fuc(a1-2)Gal(b1-3)[Fuc(a1-4)]GlcNAc(b1-3)Gal(b1-4)Glc
Procedure, shortened: as §1

[12] = biological target: Fuc(a1-2)Gal(b1-3)[Fuc(a1-4)]GlcNAc(b1-3)Gal(b1-4)[Fuc(a1-3)]GlcNAc(b1-3)Gal(b1-4)Glc
Procedure, shortened: as §1

[13] = biological target: Fuc(a1-2)Gal(b1-3)[Fuc(a1-4)]GlcNAc(b1-3)[Fuc(a1-2)]Gal(b1-4)Glc
Procedure, shortened: as §1

[14] = biological target: Fuc(a1-2)Gal(b1-3)[Fuc(a1-4)]GlcNAc(b1-3)[Fuc(a1-3)[Gal(b1-4)]GlcNAc(b1-6)]Gal(b1-4)Glc
Procedure, shortened: as §1

[15] = biological target: Fuc(a1-2)Gal(b1-3)[Fuc(a1-4)]GlcNAc(b1-3)[Gal(b1-4)GlcNAc(b1-6)]Gal(b1-4)Glc
Procedure, shortened: as §1

[16] = biological target: Fuc(a1-2)Gal(b1-4)[Fuc(a1-3)]GlcNAc(b1-3)Gal(b1-4)Glc
Procedure, shortened: as §1

[17] = biological target: Fuc(a1-2)Gal(b1-4)[Fuc(a1-3)]GlcNAc(b1-3)[Fuc(a1-2)]Gal(b1-4)Glc
Procedure, shortened: as §1

Fuc(a1-2)[Gal(a1-3)]Gal = biological target: Fuc(a1-2)[Gal(a1-3)]Gal
Procedure, shortened: as §1

[18] = biological target: Fuc(a1-2)[Gal(a1-3)]Gal(b1-4)GlcNAc(b1-3)Gal(b1-4)Glc
Procedure, shortened: as §1

[19] = biological target: Fuc(a1-2)[GalNAc(a1-3)]Gal
Procedure, shortened: as §1

[20] = biological target: Fuc(a1-2)[GalNAc(a1-3)]Gal(b1-3)GlcNAc(b1-3)Gal(b1-4)Glc
Procedure, shortened: as §1

[21] = biological target: Fuc(a1-2)[GalNAc(a1-3)]Gal(b1-3)[Fuc(a1-4)]GlcNAc(b1-3)Gal(b1-4)Glc
Procedure, shortened: as §1

[22] = biological target: Fuc(a1-2)[Neu5Ac(bond)]Gal(b1-3)GlcNAc(b1-3)Gal(b1-4)Glc
Procedure, shortened: as §1

Fuc(a1-3)GlcNAc6S = biological target: Fuc(a1-3)GlcNAc6S
Procedure, shortened: as §1

[23] = biological target: Fuc(a1-3)[3dGal(b1-4)]Glc
Procedure, shortened: as §1

[24] = biological target: Fuc(a1-3)[3dGal(b1-4)]GlcNAc(b1-3)Gal
Procedure, shortened: as §1

Fuc(a1-3)[Gal(b1-4)]Glc = biological target: Fuc(a1-3)[Gal(b1-4)]Glc
Procedure, shortened: as §1

[25] = biological target: Fuc(a1-3)[Gal(b1-4)]GlcNAc
Procedure, shortened: as §1

Measured: glycan array binding signal (z-score)

B1: HysACBM (Streptococcus pneumoniae), Q54873 (protein)
chain: KNLVENGDFGQTEDGSSPWTGSKAQGWSAWVDQKNSADASTRVIEAKDGAITISSHEKLRAALHRMVPIEAKKKYKLRFKIKTDNKIGIAKVRIIEESGKDKRLWNSATTSGTKDWQTIEADYSPTLDVDKIKLELFYETGTGTVSFKDIELVEVADQLS
-0.085: Fuc(a1-2)[Gal(a1-3)]Gal
0.039: [13]
0.047: [15]
-0.054: [11]
0.097: [16]
0.026: Fuc(a1-2)Gal
-0.073: [17]
0.584: [14]
-0.091: all other assays above
